# Results published in the supplement of paper PMC8728848.
# Some of the results follow.
# B1: DC-ASGPR L+GEE (Homo sapiens) (protein)
# chain: MTRTYENFQYLENKVKVQGFKNGPLPLQSLLQRLRSGPCHLLLSLGLGLLLLVIICVVGFQNSKFQRDLVTLRTDFSNFTSNTVAEIQALTSQGSSLEETIASLKAEVEGFKQERQAGVSELQEHTTQKAHLGHCPHCPSVCVPVHSEMLLRVQQLVQDLKKLTCQVATLNNNGEEASTEGTCCPVNWVEHQDSCYWFSHSGMSWAEAEKYCQLKNAHLVVINSREEQNFVQKYLGSAYTWMGLSDPEGAWKWVDGTDYATGFQNWKPGQPDDWQGHGLGGGEDCAHFHPDGRWNDDVCQRPYHWVCEAGLGQTSQESH
# Key:
# Assay in all cases: glycan array binding signal (z-score within array); higher = stronger binding
# Settings in all cases: glycan notation: IUPAC condensed, linker removed
# Gal(a1-6)Glc = molecular target: Gal(a1-6)Glc
# In short: (§1)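 From the Consortium for Functional Glycomics database, 3228 arrays were curated, keeping only those whose protein sequence was available. Binding is given as a within-array Z-score averaged across arrays sharing a protein sequence and across linkers. Negative Z-scores can be read as non-binding.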
# Gal(b1-2)Gal = molecular target: Gal(b1-2)Gal
# In short: as §1
# Gal(b1-3)Gal = molecular target: Gal(b1-3)Gal
# In short: as §1
# Gal(b1-3)Gal(b1-4)GlcNAc = molecular target: Gal(b1-3)Gal(b1-4)GlcNAc
# In short: as §1
# Gal(b1-3)GalNAc = molecular target: Gal(b1-3)GalNAc
# In short: as §1
# [1] = molecular target: Gal(b1-3)GalNAc(a1-3)[Fuc(a1-2)]Gal(b1-4)Glc
# In short: as §1
# [2] = molecular target: Gal(b1-3)GalNAc(a1-3)[Fuc(a1-2)]Gal(b1-4)GlcNAc
# In short: as §1
# Gal(b1-3)GalNAc(b1-3)Gal = molecular target: Gal(b1-3)GalNAc(b1-3)Gal
# In short: as §1
# [3] = molecular target: Gal(b1-3)GalNAc(b1-3)Gal(a1-4)Gal(b1-4)Glc
# In short: as §1
# [4] = molecular target: Gal(b1-3)GalNAc(b1-4)Gal(b1-4)Glc
# In short: as §1
# [5] = molecular target: Gal(b1-3)GalNAc(b1-4)[Neu5Ac(a2-3)]Gal(b1-4)Glc
# In short: as §1
# Gal(b1-3)GlcNAc = molecular target: Gal(b1-3)GlcNAc
# In short: as §1
# [6] = molecular target: Gal(b1-3)GlcNAc(a1-3)Gal(b1-4)GlcNAc
# In short: as §1
# [7] = molecular target: Gal(b1-3)GlcNAc(a1-6)Gal(b1-4)GlcNAc
# In short: as §1
# Gal(b1-3)GlcNAc(b1-2)Man = molecular target: Gal(b1-3)GlcNAc(b1-2)Man
# In short: as §1
# [8] = molecular target: Gal(b1-3)GlcNAc(b1-2)Man(a1-3)[Gal(b1-3)GlcNAc(b1-2)Man(a1-6)]Man(b1-4)GlcNAc(b1-4)GlcNAc
# In short: as §1
# [9] = molecular target: Gal(b1-3)GlcNAc(b1-2)Man(a1-3)[Gal(b1-3)GlcNAc(b1-2)Man(a1-6)]Man(b1-4)GlcNAc(b1-4)[Fuc(a1-6)]GlcNAc
# In short: as §1
# [10] = molecular target: Gal(b1-3)GlcNAc(b1-2)Man(a1-3)[GlcNAc(b1-4)][Gal(b1-3)GlcNAc(b1-2)Man(a1-6)]Man(b1-4)GlcNAc(b1-4)GlcNAc
# In short: as §1
# [11] = molecular target: Gal(b1-3)GlcNAc(b1-2)[Gal(b1-3)GlcNAc(b1-6)]Man(a1-6)[Gal(b1-3)GlcNAc(b1-2)Man(a1-3)]Man(b1-4)GlcNAc(b1-4)GlcNAc
# In short: as §1
# [12] = molecular target: Gal(b1-3)GlcNAc(b1-3)Gal(b1-3)GlcNAc
# In short: as §1
# [13] = molecular target: Gal(b1-3)GlcNAc(b1-3)Gal(b1-4)Glc
# In short: as §1
# [14] = molecular target: Gal(b1-3)GlcNAc(b1-3)Gal(b1-4)GlcNAc
# In short: as §1
# [15] = molecular target: Gal(b1-3)GlcNAc(b1-3)Gal(b1-4)GlcNAc(b1-2)Man(a1-3)[Gal(b1-3)GlcNAc(b1-3)Gal(b1-4)GlcNAc(b1-2)Man(a1-6)]Man(b1-4)GlcNAc(b1-4)GlcNAc
# In short: as §1
# [16] = molecular target: Gal(b1-3)GlcNAc(b1-3)Gal(b1-4)GlcNAc(b1-2)[Gal(b1-3)GlcNAc(b1-3)Gal(b1-4)GlcNAc(b1-6)]Man(a1-6)[Gal(b1-3)GlcNAc(b1-3)Gal(b1-4)GlcNAc(b1-2)Man(a1-3)]Man(b1-4)GlcNAc(b1-4)[Fuc(a1-6)]GlcNAc
# In short: as §1
# [17] = molecular target: Gal(b1-3)GlcNAc(b1-3)Gal(b1-4)GlcNAc(b1-3)Gal(b1-4)GlcNAc(b1-2)[Gal(b1-3)GlcNAc(b1-3)Gal(b1-4)GlcNAc(b1-3)Gal(b1-4)GlcNAc(b1-6)]Man(a1-6)[Gal(b1-3)GlcNAc(b1-3)Gal(b1-4)GlcNAc(b1-3)Gal(b1-4)GlcNAc(b1-2)Man(a1-3)]Man(b1-4)GlcNAc(b1-4)[Fuc(a1-6)]GlcNAc
# In short: as §1
# [18] = molecular target: Gal(b1-3)GlcNAc(b1-3)Gal(b1-4)GlcNAc(b1-6)[Gal(b1-3)GlcNAc(b1-3)]Gal(b1-4)Glc
# In short: as §1
# [19] = molecular target: Gal(b1-3)GlcNAc(b1-3)Gal(b1-4)[Fuc(a1-3)]GlcNAc
# In short: as §1
# [20] = molecular target: Gal(b1-3)GlcNAc(b1-3)Gal(b1-4)[Fuc(a1-3)]GlcNAc(b1-6)[Gal(b1-3)GlcNAc(b1-3)]Gal(b1-4)Glc
# In short: as §1
# [21] = molecular target: Gal(b1-3)GlcNAc(b1-3)GalNAc
# In short: as §1
# [22] = molecular target: Gal(b1-3)GlcNAc(b1-6)Gal(b1-4)GlcNAc
# In short: as §1
# [23] = molecular target: Gal(b1-3)GlcNAc(b1-6)GalNAc
# In short: as §1
# [24] = molecular target: Gal(b1-3)GlcNAc(b1-6)[Gal(b1-3)]GalNAc
# In short: as §1
# Gal(b1-3)GlcNAc6S = molecular target: Gal(b1-3)GlcNAc6S
# In short: as §1
# [25] = molecular target: Gal(b1-3)[Fuc(a1-4)]GlcNAc
# In short: as §1
# [26] = molecular target: Gal(b1-3)[Fuc(a1-4)]GlcNAc(b1-2)Man
# In short: as §1
# [27] = molecular target: Gal(b1-3)[Fuc(a1-4)]GlcNAc(b1-2)Man(a1-3)[Gal(b1-3)[Fuc(a1-4)]GlcNAc(b1-2)Man(a1-6)]Man(b1-4)GlcNAc(b1-4)[Fuc(a1-6)]GlcNAc
# In short: as §1
# [28] = molecular target: Gal(b1-3)[Fuc(a1-4)]GlcNAc(b1-3)Gal(b1-3)[Fuc(a1-4)]GlcNAc
# In short: as §1
binder,measurement,setting,value
B1,glycan array binding signal (z-score),Gal(a1-6)Glc,0.01
same,glycan array binding signal (z-score),Gal(b1-2)Gal,-0.162
same,glycan array binding signal (z-score),Gal(b1-3)Gal,0.294
same,glycan array binding signal (z-score),Gal(b1-3)Gal(b1-4)GlcNAc,-0.467
same,glycan array binding signal (z-score),Gal(b1-3)GalNAc,-0.211
same,glycan array binding signal (z-score),[1],-0.007
same,glycan array binding signal (z-score),[2],-0.615
same,glycan array binding signal (z-score),Gal(b1-3)GalNAc(b1-3)Gal,-0.534
same,glycan array binding signal (z-score),[3],0.427
same,glycan array binding signal (z-score),[4],-0.69
same,glycan array binding signal (z-score),[5],1.04
same,glycan array binding signal (z-score),Gal(b1-3)GlcNAc,-0.018
same,glycan array binding signal (z-score),[6],0.167
same,glycan array binding signal (z-score),[7],-0.332
same,glycan array binding signal (z-score),Gal(b1-3)GlcNAc(b1-2)Man,-0.26
same,glycan array binding signal (z-score),[8],-0.235
same,glycan array binding signal (z-score),[9],-0.527
same,glycan array binding signal (z-score),[10],0.141
same,glycan array binding signal (z-score),[11],-0.037
same,glycan array binding signal (z-score),[12],-0.664
same,glycan array binding signal (z-score),[13],0.316
same,glycan array binding signal (z-score),[14],-0.133
same,glycan array binding signal (z-score),[15],0.389
same,glycan array binding signal (z-score),[16],0.927
same,glycan array binding signal (z-score),[17],1.47
same,glycan array binding signal (z-score),[18],-0.11
same,glycan array binding signal (z-score),[19],-0.22
same,glycan array binding signal (z-score),[20],-0.336
same,glycan array binding signal (z-score),[21],-0.511
same,glycan array binding signal (z-score),[22],-0.073
same,glycan array binding signal (z-score),[23],3.3
same,glycan array binding signal (z-score),[24],-0.453
same,glycan array binding signal (z-score),Gal(b1-3)GlcNAc6S,-0.504
same,glycan array binding signal (z-score),[25],-0.264
same,glycan array binding signal (z-score),[26],0.111
same,glycan array binding signal (z-score),[27],-0.413
same,glycan array binding signal (z-score),[28],-0.093
